Laboratory results from PubChem BioAssay AID651820 (National Center for Advancing Translational Sciences (NCATS), 2012).
Among all 340,000 compounds or so, about 12,000 (3.5%) were called active. Inconclusive results, whose numbers are uncertain, are shown with a selection of clear calls. Calls follow the shape of the dose curve; as a rule, active = well fitted inhibition curve with a large enough effect; inconclusive = small, poorly fitted or top-dose-only effect, or another doubt; inactive = no such curve, though single readings can be large or run the other way. No potency is given beside an inconclusive call; the fits are too rough.

Test: qHTS Assay for Inhibitors of Hepatitis C Virus (HCV)
Settings: Huh7.5.1 HCVcc-Cre (HCVcc is cell-culture hepatitis C virus) infection, luciferase reporter, 44 h; series mostly up to 41.8 µM
Outline: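 Cells (1,000/well) were plated 4 h before compound, then infected with HCVcc-Cre virus (~0.5 moi). After 44 h further culture, infection was read as luciferase luminescence following a 15 min substrate incubation at room temperature.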
Potency is read from the fitted curve at half-maximal effect; tags tell the direction and shape of the fitted curve.

Row | Structure (SMILES) | Potency
1 | CC[C@]12c3[nH]c4ccccc4c3CCN1C(=O)C(CC(=O)NCc1cccc(C(F)(F)F)c1)C[C@@H]2C(=O)N1CCN(C(=O)C2CC2)CC1 (some centres undefined) | inconclusive [inhibitor, full curve, poor fit]
2 | COc1ccc(-n2ncc3c2CC(C)(C)CC3NC(=O)CCN2CCCCC2=O)cc1 (centres undefined) | inactive
3 | COCCN(C(=O)c1ccco1)c1nnc(-c2ccc(F)cc2)s1 | inconclusive [inhibitor, full curve, poor fit]
4 | CN(Cc1cccc(Cl)c1Cl)C(=O)c1ccccc1SCC(=O)N1CCCC1 | active: 22.4 µM
5 | O=C(CN1CCC(n2nnc3cc(C(F)(F)F)ccc32)CC1)N1CCc2ccccc21 | inconclusive [inhibitor, single point]
6 | Cc1sc2ncnc(N3CCN(S(=O)(=O)c4ccc(C(C)(C)C)cc4)CC3)c2c1C | active: 5.62 µM
7 | O=C(Nc1ccc(Br)cc1)c1cnccn1 | inactive
8 | O=C(c1cccc(F)c1)N1CCN(c2ccc([N+](=O)[O-])c(N3CCCCC3)c2)CC1 | inconclusive [inhibitor, single point]
9 | Cc1ccc(C(=O)Nc2cccc(C(F)(F)F)c2)cc1NC(=O)c1ccno1 | inconclusive [inhibitor, full curve, poor fit]
10 | Cc1noc(C)c1COc1ccccc1C(=O)NCCOc1ccccc1 | inactive
11 | COc1ccc(OC)c2[nH]c(=O)c(CCNC(=O)c3ccc(S(=O)(=O)N4CCCC4)cc3)cc12 | active: 11.2 µM
12 | Cc1ccc(S(=O)(=O)Nc2ccc(Cl)cc2C(=O)c2ccccc2)cc1 | inconclusive [inhibitor, single point]
13 | Cc1ccc(C(C(=O)NC(C)(C)C)N(Cc2ccco2)C(=O)CCC(=O)Nc2ccccn2)cc1 (centres undefined) | inactive
14 | O=C(Nc1ccc(S(=O)(=O)N2CCOCC2)cc1)c1ccc(CN2CCc3ccccc3C2)cc1 | inconclusive [inhibitor, partial curve, poor fit]
15 | CC(=O)NC(c1cccs1)c1cc([N+](=O)[O-])c2cccnc2c1O (centres undefined) | active: 12.6 µM
16 | CCCCCCCN1C2=NCCN2c2ccccc21 | inconclusive [inhibitor, single point]
17 | O=C1CC(N2CCC(O)(c3ccc(Cl)cc3)CC2)C(=O)N1Cc1ccc(N2CCCC2=O)cc1 (centres undefined) | inconclusive [inhibitor, partial curve]
18 | CSC(=S)N/N=C(\C)c1ccc(Br)cc1 | inconclusive [inhibitor, single point]
19 | CCc1cccc(NC(=O)Cn2c3[n+](c4ccc(C(F)(F)F)cc42)CCCCC3)c1 | inconclusive [inhibitor, single point]
20 | C/C(=N\Nc1ccccn1)c1cccs1 | active: 10 µM
21 | O=C(N/N=C/c1ccc(OC(F)F)cc1OC(F)F)c1ccc(Br)cc1 | inconclusive [inhibitor, partial curve]
22 | CCOC(=O)c1c(CN2CCOCC2)n(-c2ccccc2)c2ccc(O)cc12 | inconclusive [inhibitor, partial curve]

Row | Structure (SMILES) | Potency
23 | COC(=O)c1ccccc1C(=O)N1CCCC(C(=O)c2cc(F)ccc2F)C1 (centres undefined) | inconclusive [inhibitor, single point]
24 | CCC(CC)NCC(O)COc1ccc(Br)cc1 (centres undefined) | inconclusive [inhibitor, partial curve]
25 | Cc1ccc(C(=O)OC(C(=O)O)C(OC(=O)c2ccc(C)cc2)C(=O)O)cc1 (centres undefined) | inactive
26 | O=C(c1ccc2c(c1)C(=O)N(Cc1ccco1)C2O)N1CCOCC1 (centres undefined) | inactive
27 | Cc1ccc(CSc2nnc(CS(=O)Cc3ccc(Cl)cc3Cl)n2C)cc1 (centres undefined) | inconclusive [inhibitor, single point]
28 | Cc1cccc(N2O[C@H]3C=CC2CCCC3)n1 | active: 25.1 µM
29 | c1ccc(-c2cn(CC3CCCCC3)nn2)cc1 | inconclusive [inhibitor, partial curve]
30 | Cc1ccccc1C(=O)c1c[nH]c(C(=O)NCc2ccco2)c1 | inactive
31 | COc1cc2c(C#N)c(N3CCCC3)nc(N)c2c(N)n1 | inconclusive [inhibitor, partial curve]
32 | CC(=O)c1cccc(NC(=O)NCc2ccco2)c1 | inactive
33 | CCc1nnc(NC(=O)CSc2nnc(-c3ccccc3O)n2-c2ccc(C)cc2C)s1 | inconclusive [inhibitor, partial curve, poor fit]
34 | O=c1[nH]c(O)c(/C=C2\C=Nc3ccc(OCc4ccccc4)cc32)c(=O)[nH]1 | inconclusive [inhibitor, single point]
35 | COc1ccc(NC(=O)C(C)N(C)Cc2ccc3ccccc3c2)cc1 (centres undefined) | inconclusive [inhibitor, single point]
36 | COc1ccc(OC)c(/C=C/C(=O)NC2=NCCS2)c1 | inconclusive [inhibitor, single point]
37 | O=C(O)C1CCN(C(=O)CSc2nc3ccccc3s2)CC1 | inactive
38 | CCC1CCc2c(sc(NC(=O)c3ccco3)c2C(N)=O)C1 (centres undefined) | active: 3.98 µM
39 | CN1CCN(c2ccccc2NC(=O)COc2ccccc2)CC1 | inconclusive [inhibitor, single point]
40 | CC(=O)c1cccc(OCC(=O)N(CCC2=CCCCC2)c2c(N)n(Cc3ccccc3)c(=O)[nH]c2=O)c1 | inconclusive [inhibitor, full curve]
41 | CCc1cc2ccccc2nc1SCC(=O)Nc1cc(C)on1 | inconclusive [inhibitor, single point]
42 | COc1cc(C(=O)N/N=C/c2sccc2C)cc(OC)c1OC | inconclusive [inhibitor, full curve, poor fit]
43 | O=C(CN(C(=O)c1ccccc1Cl)N1C(=O)CCCC1=O)c1ccc(Cl)cc1 | inactive
44 | COc1cc(NC(=O)c2ccc(C)cc2C)ccc1NC(=O)c1cc2ccccc2o1 | inconclusive [inhibitor, full curve]
